# In the supplement of paper PMC7826260:
# This is one part of the list. The data describe in vitro nicking of single-stranded DNA by Rep domains for 1 h at 37 °C with 3 µM enzyme; only the middle of the 90-letter strands is printed. Values are log2 of uncut reads against the no-enzyme pool; more negative means more cut, near 0 not cut, and no call is made. The scaling is to total reads; values above 0 arise when much of the pool is cut.
# How the values were obtained:
# Assay in all cases: uncleaved DNA left, log2 of reads against the no-enzyme library (log2 ratio); higher = less cleavage (more negative = more Rep cleavage of the k-mer); sequences stand for … in CTCGTCCG…ACCGGAGA
# [1] = test system: T1, Rep nickase domain of Muscovy duck circovirus
# T1 sequence (protein, residues 1-111, tag omitted): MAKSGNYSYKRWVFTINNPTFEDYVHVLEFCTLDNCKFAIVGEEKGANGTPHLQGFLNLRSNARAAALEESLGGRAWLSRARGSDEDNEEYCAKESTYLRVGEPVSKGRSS
# Protocol: (§1)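 A pool of 90-nt single-stranded DNAs with seven random bases just before the constant AC of the nick site (name = the seven bases) was cut by 3 µM recombinant His6-SUMO-tagged Rep nickase domain (300 nM DNA, 50 mM HEPES pH 8.0, 50 mM NaCl, 1 mM MnCl2, 1 h, 37 °C, three replicates). Uncut DNA was amplified and sequenced.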
# [2] = test system: T2, Rep nickase domain of banana bunchy top virus
# T2 sequence (protein, residues 1-94, tag omitted): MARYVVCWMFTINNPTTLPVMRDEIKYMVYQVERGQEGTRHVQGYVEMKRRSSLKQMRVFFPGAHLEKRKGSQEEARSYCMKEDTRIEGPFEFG
# Protocol: as §1
# [3] = test system: T3, Rep nickase domain of cabbage leaf curl virus
# T3 sequence (protein, residues 1-116, tag omitted): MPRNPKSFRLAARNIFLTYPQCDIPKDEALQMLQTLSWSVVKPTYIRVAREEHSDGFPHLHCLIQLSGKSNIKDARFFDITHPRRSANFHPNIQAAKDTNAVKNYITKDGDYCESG
# Protocol: as §1
# [4] = test system: T4, Rep nickase domain of chickpea chlorotic dwarf virus
# T4 sequence (protein, residues 1-124, tag omitted): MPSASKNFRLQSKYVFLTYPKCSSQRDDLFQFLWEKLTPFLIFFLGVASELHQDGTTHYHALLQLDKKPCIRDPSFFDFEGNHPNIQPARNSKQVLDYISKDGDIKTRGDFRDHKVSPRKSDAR
# Protocol: as §1
# [5] = test system: T5, Rep nickase domain of faba bean necrotic yellows virus
# T5 sequence (protein, residues 1-98, tag omitted): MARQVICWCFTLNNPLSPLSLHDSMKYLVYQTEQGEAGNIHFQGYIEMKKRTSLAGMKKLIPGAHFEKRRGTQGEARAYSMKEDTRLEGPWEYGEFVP
# Protocol: as §1
# [6] = test system: T6, Rep nickase domain of maize striate mosaic virus
# T6 sequence (protein, residues 1-117, tag omitted): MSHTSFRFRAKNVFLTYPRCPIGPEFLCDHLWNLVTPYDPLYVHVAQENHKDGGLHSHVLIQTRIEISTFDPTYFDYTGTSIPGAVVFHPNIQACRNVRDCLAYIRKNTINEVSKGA
# Protocol: as §1
# [7] = test system: T7, Rep nickase domain of porcine circovirus 2
# T7 sequence (protein, residues 2-116, tag omitted): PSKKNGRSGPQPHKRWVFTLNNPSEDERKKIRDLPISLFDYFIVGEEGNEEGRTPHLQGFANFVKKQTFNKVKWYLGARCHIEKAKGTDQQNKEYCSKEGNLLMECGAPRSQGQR
# Protocol: as §1
# [8] = test system: T8, Rep nickase domain of tomato golden mosaic virus
# T8 sequence (protein, residues 1-124, tag omitted): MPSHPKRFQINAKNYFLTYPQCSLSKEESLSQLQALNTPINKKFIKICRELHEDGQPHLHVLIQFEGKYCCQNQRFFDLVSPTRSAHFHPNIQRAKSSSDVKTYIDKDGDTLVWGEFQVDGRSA
# Protocol: as §1
# [9] = test system: T9, Rep nickase domain of tomato yellow leaf curl virus
# T9 sequence (protein, residues 1-136, tag omitted): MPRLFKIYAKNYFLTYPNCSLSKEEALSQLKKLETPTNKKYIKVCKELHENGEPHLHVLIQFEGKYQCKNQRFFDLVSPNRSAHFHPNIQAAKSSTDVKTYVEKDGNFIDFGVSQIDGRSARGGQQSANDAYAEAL
# Protocol: as §1
# [10] = test system: T10, Rep nickase domain of wheat dwarf virus
# T10 sequence (protein, residues 1-137, tag omitted): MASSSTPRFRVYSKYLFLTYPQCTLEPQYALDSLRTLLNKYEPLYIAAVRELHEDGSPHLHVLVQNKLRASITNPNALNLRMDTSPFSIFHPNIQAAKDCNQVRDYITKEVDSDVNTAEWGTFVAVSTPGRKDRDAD
# Protocol: as §1
Sequence,uncleaved DNA left (log2) [1],uncleaved DNA left (log2) [2],uncleaved DNA left (log2) [3],uncleaved DNA left (log2) [4],uncleaved DNA left (log2) [5],uncleaved DNA left (log2) [6],uncleaved DNA left (log2) [7],uncleaved DNA left (log2) [8],uncleaved DNA left (log2) [9],uncleaved DNA left (log2) [10]
CGTCTTC,0.127,0.0361,0.203,0.0828,0.0577,-0.169,0.0594,0.107,0.0172,0.195
GCCCCGT,0.0147,-0.0162,0.0244,-0.0261,0.0727,-0.278,-0.039,0.0566,0.0253,-0.0322
ATCTGGA,0.167,0.0562,-0.00474,0.23,-0.0289,0.109,0.0887,0.0823,0.0393,0.118
ATTAGTC,0.0743,-0.0352,-0.0995,-0.307,0.0257,-0.954,0.0482,-0.0452,-0.0188,0.0425
GAGCAAA,0.0234,0.188,0.217,0.76,0.0567,0.933,-0.421,0.00867,0.106,0.0764
GGTGCGT,-0.0526,-0.12,-0.0825,0.577,-0.156,0.152,-0.0854,-0.122,-0.0596,-0.174
CCAAGAA,-0.0446,0.021,0.0519,0.268,-0.0179,-0.156,0.153,0.0191,-0.138,-0.0429
